59 compounds from PubChem BioAssay AID360 (National Center for Advancing Translational Sciences (NCATS), 2006) can be followed below.

In all, about 48,000 compounds went through this assay and about 550 (1.1%) were called active. Another 4% or so got no clear call; they are omitted. No stated cut-off is given here; in the data, active means potency below about 15 µM; inconclusive means mostly about 16 µM to 33 µM; inactive means weaker than that. Some of the results follow.
Potency means the concentration at half of the fitted maximal effect.

UniProt P04062, sequence (P04062 whole entry, looked up): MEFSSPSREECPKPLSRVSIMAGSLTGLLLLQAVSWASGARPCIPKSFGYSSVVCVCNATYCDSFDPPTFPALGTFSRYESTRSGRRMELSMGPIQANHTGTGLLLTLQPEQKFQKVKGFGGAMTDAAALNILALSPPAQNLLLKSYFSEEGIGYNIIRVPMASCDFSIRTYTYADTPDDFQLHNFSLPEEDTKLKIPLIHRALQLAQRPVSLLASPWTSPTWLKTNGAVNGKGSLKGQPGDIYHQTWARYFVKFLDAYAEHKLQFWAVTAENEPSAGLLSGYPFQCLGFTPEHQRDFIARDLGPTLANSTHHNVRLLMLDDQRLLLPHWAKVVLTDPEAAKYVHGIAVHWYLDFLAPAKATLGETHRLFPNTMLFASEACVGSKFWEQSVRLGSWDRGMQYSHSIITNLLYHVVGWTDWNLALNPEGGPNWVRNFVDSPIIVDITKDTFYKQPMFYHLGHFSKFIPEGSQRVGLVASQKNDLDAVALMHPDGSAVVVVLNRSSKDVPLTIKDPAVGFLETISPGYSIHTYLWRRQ

This assay deals with Lysosomal acid glucosylceramidase (Homo sapiens) (UniProt P04062). The assay is described as follows: Glucocerebrosidase.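 Further: the screen sought inhibitors.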 To be noted: purified enzyme, resorufin glucoside fluorescence (screen aimed at inhibitors), 20 min. The method in brief:
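Wild-type enzyme at 0.2 nM final in 50mM citric acid/KH2PO4, 10mM sodium taurocholate, 0.01% tween-20, pH 5.9, with resorufin beta-D-glucopyranoside at 30 uM final. Compounds titrated, 20 min at RT, red fluorescence read; AC50 from titration.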
Consider `Cc1ncc(CSc2nnnn2-c2ccccc2)c(N)n1`, for which the Potency is inactive: > 76.9 µM.

Consider `Cc1ccc(-c2csc3ncnc(-n4nc(C)cc4N)c23)cc1`, for which the Potency is inactive: > 76.9 µM.

Turning to `CN(C)/C=C/c1c(C#N)c(=O)ncn1Cc1ccccc1`, the Potency was inactive: > 76.9 µM.

For the compound `COc1ccc(OC)c(C(=O)CN2C(=O)NC(C)(c3ccccc3)C2=O)c1` (centres undefined), the Potency was inactive: > 76.9 µM.

On to `N#CNC1=NCN(Cc2ccccc2)CN1`, for which the Potency was inactive: > 76.9 µM.

Consider `CN1CCC2(CC1)NC(=O)NC2=O`, for which the Potency was inactive: > 76.9 µM.

In the case of `COc1ccc2c(Cl)c(-c3nnco3)sc2c1`, the Potency was inactive: > 76.9 µM.

With `CCOC(=O)c1cc2sccc2n1CC(=O)N1CCCc2ccccc21`, the Potency was inactive: > 76.9 µM.

In the case of `Cc1nc(N2CCCC2)c2nnn(Cc3ccccc3Cl)c2n1`, the Potency is inactive: > 76.9 µM.

On to `O/N=C1/CCCCC1c1ccccn1` (centres undefined), for which the Potency was inactive: > 76.9 µM.

For the compound `CCn1ccc(C(=O)Oc2ccc(C(C)C)cc2)n1`, the Potency is inactive: > 76.9 µM.

For the compound `CC(=O)c1c(C)[nH]c(C(=O)CSc2nnc(CN3CCCCCC3=O)n2-c2ccccn2)c1C`, the Potency was inactive: > 76.9 µM.

As to `O=S(=O)(NC1CC2CCC1C2)c1ccc(Br)s1` (centres undefined), the Potency entry is “inactive”.

Turning to `O=C(Oc1nsnc1N1CCOCC1)N1CCOCC1`, the Potency is inactive: > 76.9 µM.

`CC(C)(C)C(=O)C(Oc1cccc2nonc12)n1cncn1` (centres undefined): the Potency is inactive: > 76.9 µM.

For the compound `C=CCSc1nnc(NC(=O)CSc2ccccn2)s1`, the Potency was inactive: > 76.9 µM.

In the case of `CN(C)C(CNC(=O)C1CCCN(C(=O)c2ccc(Cl)cc2)C1)c1ccco1` (centres undefined), the Potency is inactive: > 76.9 µM.

In the case of `COc1ccc(N2CCN(CC(=O)Nc3c(C)cc(C)cc3C)CC2)cc1`, the Potency is inactive: > 76.9 µM.

`C=CCOc1ccc(/C(O)=C2/C(=O)C(=O)N(CCN3CCOCC3)C2c2ccc(C)cc2)cc1` (centres undefined): the Potency is inactive: > 76.9 µM.

With `COc1c(F)c(F)c(C(=O)Nc2cccc(Cl)c2N2CCOCC2)c(F)c1F`, the Potency is inactive: > 76.9 µM.

In the case of `CCc1nc(OCc2ccco2)c2sc3nc4c(cc3c2n1)COC(C)(C)C4`, the Potency is inactive: > 76.9 µM.

`CCNC(=O)C1CCN(S(=O)(=O)c2ccc(F)cc2)CC1`: the Potency is inactive: > 76.9 µM.

For the compound `CC(C(=O)OCc1nnc(-c2ccccc2)o1)N1C(=O)c2ccccc2C1=O` (centres undefined), the Potency is inactive: > 76.9 µM.

As to `CC(=O)Nc1cccc(NC(=O)c2sc3ncn(CC(=O)N4CCCCC4)c(=O)c3c2C)c1`, the Potency result was “inactive”.

On to `CCc1nnc(NC(=O)CSc2nnc(-c3ccco3)n2CC)s1`, for which the Potency was inactive: > 76.9 µM.

Turning to `Cc1nnc(SCCC(=O)Nc2nc(-c3ccccc3)ns2)s1`, the Potency is inactive: > 76.9 µM.

With `Nc1nc(SCC(=O)NCc2ccccc2)n[nH]1`, the Potency was inactive: > 76.9 µM.

Turning to `Cn1c(SCc2ccccc2)nnc1-c1ccc2c(c1)OCO2`, the Potency is inactive: > 76.9 µM.

`Cc1ccc(S(=O)(=O)N2C(=O)CCC2C(=O)N2CCN(C)CC2)cc1` (centres undefined): the Potency was inactive: > 76.9 µM.

As to `COc1cccc(CNc2ccc(N3CCCCC3)cc2)c1OC`, the Potency was inactive: > 76.9 µM.

As to `O=P(C1=C(N2CCOCC2)/C(=C\c2ccccc2)CC1)(N1CCOCC1)N1CCOCC1`, the Potency was inactive: > 76.9 µM.

With `Cc1cccc(N2CCN(C(=O)c3ccncc3)CC2)c1C`, the Potency was inactive: > 76.9 µM.

Turning to `CCCOc1cccc(C(=O)N(Cc2cccs2)C2CCS(=O)(=O)C2)c1` (centres undefined), the Potency is inactive: > 76.9 µM.

As to `O=C(CSc1nc2ccccc2o1)N1CCN(c2ccccc2)CC1`, the Potency is inactive: > 76.9 µM.

Regarding `COc1ccccc1-c1cc(C(F)(F)F)nc(N2CCN(c3ccc(F)cc3)CC2)n1`, the Potency was inactive: > 76.9 µM.

For the compound `CCN(CC)S(=O)(=O)c1ccc(Nc2nc3ccccc3n3nnnc23)cc1`, the Potency is inactive: > 76.9 µM.

For `COc1ccc(-c2nnc3sc(-c4ccc(Br)o4)nn23)cc1OC`, the Potency is inactive: > 76.9 µM.

With `CCNc1nc(NC(C)(C)C)nc(N(CC)n2cnnc2)n1`, the Potency is inactive: > 76.9 µM.

Turning to `CCc1cc(C(=O)OC)c(NC(=O)CC2NCCNC2=O)s1` (centres undefined), the Potency was inactive: > 76.9 µM.

As for `CNC(=O)c1ccccc1-c1ccccc1`, the Potency was inactive: > 76.9 µM.

As for `COc1ccc(-c2cn3cccnc3n2)cc1NC(=O)CC(C)C`, the Potency is inactive: > 76.9 µM.

As for `Cc1ccc(OCc2ccoc2C(=O)O)cc1C`, the Potency is inactive: > 76.9 µM.

As for `Cc1cc(C(=O)Cn2nnc(-c3ccc(Cl)cc3)n2)c(C)n1CC1CCCO1` (centres undefined), the Potency is inactive: > 76.9 µM.

In the case of `CSc1cccc(NC(=O)C2CCN(S(C)(=O)=O)CC2)c1`, the Potency is inactive: > 76.9 µM.

Regarding `COc1ccccc1Cn1c(=O)c2ccccc2n2c(SCc3csc(C)n3)nnc12`, the Potency was inactive: > 76.9 µM.

On to `CCN(CC)C(=O)CN(C#N)c1nc(OC)nc(N(C)C)n1`, for which the Potency was inactive: > 76.9 µM.

In the case of `CN(C)CCCN1C(=O)C(=O)/C(=C(/O)c2ccc3c(c2)OCCO3)C1c1ccccn1` (centres undefined), the Potency is inactive: > 76.9 µM.

For the compound `CCOc1ccc(N(Cc2cc3cc(OC)ccc3[nH]c2=O)C(=O)C2CCCO2)cc1` (centres undefined), the Potency is inactive: > 76.9 µM.

Take `CC(C)C(NC(=O)C1CCCCC1)C(=O)N1CCN(c2ccc(F)cc2)CC1` (centres undefined): the Potency is inactive: > 76.9 µM.

As to `Cn1c(=O)n(C)c2cc(CNc3ccc(N4CCOCC4)c(C(=O)O)c3)ccc21`, the Potency is inactive: > 76.9 µM.

Take `CCOC(=O)C1CN(c2cc3c(cc2F)c(=O)c(C(=O)O)cn3CC)OC1C(=O)OCC` (centres undefined): the Potency was inactive: > 76.9 µM.

For the compound `Cc1ccc(S(=O)(=O)NC(C)C(=O)NC2CCCCCC2)cc1` (centres undefined), the Potency is inactive: > 76.9 µM.

Consider `CCC(C)n1[nH]c(=O)cc1N` (centres undefined), for which the Potency is inactive: > 76.9 µM.

For the compound `CCC(C)Nc1nc(SC(C(C)=O)C(C)=O)nc(N(C)C)n1` (centres undefined), the Potency is inactive: > 76.9 µM.

Consider `COc1ccc2[nH]c(=O)c(CN(Cc3ccco3)Cc3nnnn3Cc3ccccc3)cc2c1`, for which the Potency is inactive: > 76.9 µM.

As for `COc1ccc(OC)c(C2=Nn3c(nnc3-c3cc(OC)c(OC)c(OC)c3)SC2)c1`, the Potency was inactive: > 76.9 µM.

Turning to `O=C(O)c1oc2ccccc2c1CN1CCN(c2ccccc2)CC1`, the Potency was inactive: > 76.9 µM.

Turning to `N#CC1=C(N)Oc2n[nH]c(-c3cccs3)c2C1c1cccs1` (centres undefined), the Potency was inactive: > 76.9 µM.

`CCOC(=O)C1CCCN(S(=O)(=O)c2cc(Br)cc3c2N(C(=O)C2CC2)CC3)C1` (centres undefined): the Potency is inactive: > 76.9 µM.
